# Screen size: about 310,000 compounds; about 14,000 (4.5%) showed an effect of 50% or more. The effect is printed as a negative number. This is one part of the list.
# Biological target: human ether-à-go-go-related gene (hERG) potassium channel (human, UniProt Q12809)
# Assay: primary screen, population patch clamp on CHO cells stably expressing hERG
# 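Note: peak tail current of the secondary pulse compared with the same well before compound.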
# human ether-à-go-go-related gene (hERG) potassium channel, sequence (Q12809 whole entry, looked up): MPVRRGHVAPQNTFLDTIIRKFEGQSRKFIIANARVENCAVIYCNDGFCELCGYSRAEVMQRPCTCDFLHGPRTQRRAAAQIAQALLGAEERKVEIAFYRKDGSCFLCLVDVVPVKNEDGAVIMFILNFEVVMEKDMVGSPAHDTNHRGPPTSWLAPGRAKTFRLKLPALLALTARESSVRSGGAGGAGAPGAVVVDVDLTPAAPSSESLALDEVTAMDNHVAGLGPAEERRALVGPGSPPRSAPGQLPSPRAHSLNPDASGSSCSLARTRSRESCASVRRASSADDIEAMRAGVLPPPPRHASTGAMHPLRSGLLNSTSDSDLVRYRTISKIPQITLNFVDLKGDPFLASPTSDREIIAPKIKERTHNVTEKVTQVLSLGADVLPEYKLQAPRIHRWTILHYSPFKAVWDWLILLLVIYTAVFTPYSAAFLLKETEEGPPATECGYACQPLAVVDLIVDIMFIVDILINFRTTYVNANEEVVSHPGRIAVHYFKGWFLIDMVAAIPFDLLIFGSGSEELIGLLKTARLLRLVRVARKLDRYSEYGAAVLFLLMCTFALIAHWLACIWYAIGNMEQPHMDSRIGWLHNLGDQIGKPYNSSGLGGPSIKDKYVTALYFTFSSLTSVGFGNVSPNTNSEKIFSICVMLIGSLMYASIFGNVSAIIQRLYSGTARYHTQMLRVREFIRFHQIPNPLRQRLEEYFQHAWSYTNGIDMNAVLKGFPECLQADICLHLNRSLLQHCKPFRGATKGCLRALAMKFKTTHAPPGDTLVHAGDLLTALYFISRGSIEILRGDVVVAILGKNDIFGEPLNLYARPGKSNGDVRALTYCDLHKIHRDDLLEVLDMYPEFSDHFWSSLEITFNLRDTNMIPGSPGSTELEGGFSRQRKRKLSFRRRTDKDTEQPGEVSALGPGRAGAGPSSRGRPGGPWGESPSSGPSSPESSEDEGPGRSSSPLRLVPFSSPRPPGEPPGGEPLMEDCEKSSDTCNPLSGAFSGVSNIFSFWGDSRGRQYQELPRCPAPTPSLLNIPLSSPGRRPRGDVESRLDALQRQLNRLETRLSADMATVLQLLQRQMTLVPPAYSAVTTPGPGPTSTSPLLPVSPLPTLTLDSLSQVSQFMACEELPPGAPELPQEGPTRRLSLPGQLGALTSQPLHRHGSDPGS
row,SMILES,"hERG current change (%, negative = inhibition) at 10uM"
1,O=C(C1CCCN(Cc2ccc(Cl)cc2)C1)N1CCCCC1.O=C(O)C(=O)O (centres unmarked),-14.9%
2,c1ccc2[nH]c(CN3CCCCC3)nc2c1,1.41%
3,COc1ccc(NC(C)=O)cc1NC(C)C(=O)Nc1ccc(F)cc1 (centres unmarked),-3.74%
4,Cc1[nH]c(C)c(S(=O)(=O)NCC(C)c2ccccc2)c1C(=O)N1CCCCC1 (centres unmarked),-0.274%
5,COC(=O)c1coc(-c2ccc(C)cc2)c1C(=O)OC,1.6%
6,Cl.O=C(c1cc(F)c(F)c(F)c1F)N1CCN(Cc2ccc3c(c2)OCO3)CC1,3.4%
7,COc1ccc(OC)c(S(=O)(=O)N2CCN(c3ccccn3)CC2)c1,-12.5%
8,O=C(O)CCC(=O)N1N=C(c2c(-c3ccccc3)c3cc(Cl)ccc3[nH]c2=O)CC1c1ccccc1 (centres unmarked),6.94%
9,Cc1ncc2c(c1OC(=O)c1ccc([N+](=O)[O-])cc1)COC(C)(C)OC2,-65.8%
10,CCc1ccccc1NC(=O)C1CCN(C(=O)N2CCOc3ccccc32)CC1,1.77%
11,CCCCN(CC)CCCNC(=O)c1cc2c(=O)n(CC)c3ccccc3c2s1,-28.6%
12,CC(CCN1CCN(CCO)CC1)c1ccccc1 (centres unmarked),9.32%
13,CSc1nsc(SC)c1C(=O)NCCNS(=O)(=O)c1ccc(C)cc1,2.51%
14,COc1cc(CNCCO)cc(Cl)c1OCc1ccccc1Cl.Cl,-2.88%
15,CCC(C)(C(=O)NC1CCCC1)N(C(=O)c1ccccn1)c1ccccc1 (centres unmarked),-5.75%
16,COc1ccc(-c2noc(-c3ccc(C)cc3)n2)cc1,31.4%
17,COc1ccccc1NC(=O)c1sc2ncn(Cc3cccc(C)c3)c(=O)c2c1C,-7.24%
18,CCCC(CCC(=O)Nc1cc([N+](=O)[O-])ccc1O)C(=O)O (centres unmarked),19.2%
19,O=C(CN(Cc1ccccc1)S(=O)(=O)c1ccc(Br)cc1)N/N=C/c1ccccc1C(=O)O,8.75%
20,Cc1nc(C(=O)Nc2ccccc2Cl)cc2c1[nH]c1ccccc12,0.837%
21,COCCCNC(=S)NCCNc1nc2cc(C)cc(C)c2cc1C#N,-31.2%
22,O=C(/C=C/c1c(Cl)nc2ccccn12)N1CCN(c2ccc(F)cc2)CC1,-40.5%

row,SMILES,"hERG current change (%, negative = inhibition) at 10uM"
1,O=C(Nc1ccccc1)C1CC(O)CN1S(=O)(=O)c1ccc([N+](=O)[O-])cc1 (centres unmarked),2.02%
2,Cc1cc(C)cc(NC(=O)CSc2nnc(C3CC3)n2CC2CCCO2)c1 (centres unmarked),-47.1%
3,O=C(Nc1cc2c(oc1=O)CCCC2=O)c1ccccc1,-6.91%
4,COc1ccccc1NC(=O)N(Cc1ccc2c(c1)OCO2)Cc1nc2ccccc2c(=O)[nH]1,-7.38%
5,COc1ccc(C(=O)Nc2ccc(S(=O)(=O)N3CCCC3)cc2)c(OC)c1,-1.22%
6,COC(=O)CSC1=C(C#N)C(c2ccccc2F)CC(=O)N1 (centres unmarked),7.73%
7,CCOC(=O)c1c(NC(=O)Cc2cccs2)sc(C)c1C,0.899%
8,CCc1nnc(NC(=O)CSc2nnc(C3CCCCC3)n2-c2cccc(Cl)c2)s1,-1.12%
9,Cc1ccc2oc(=O)n(Cc3ccccc3)c2c1,15.7%
10,COC(=O)c1ccccc1NC(=O)C1CCN(C(=O)c2cc(OC)c(OC)c(OC)c2)CC1,-18.5%
11,O=C(c1nc2ccccn2c1CNCCCn1cccn1)N1CCCC1,-12.1%
12,CC(=O)Nc1ccc(NC(=O)C2CCN(S(=O)(=O)c3cccc4nonc34)CC2)cc1,-8%
13,CCc1ccc(-c2nn[nH]n2)cc1,4.61%
14,O=C(NNC(=O)c1ccccc1OCc1ccccc1Cl)c1csc(N2CCOCC2)n1,31%
15,O=C(Cc1cccs1)Nc1ccc(NC(=O)c2ccco2)cc1,5.99%
16,CCc1ccc(NC(=O)c2ccc(C3SCC(=O)N3CCc3ccccc3)cc2)cc1 (centres unmarked),6.22%
17,C=CCn1c[n+](CC(=O)c2ccc(Br)s2)c2ccccc21.[Br-],-6.97%
18,CC(=O)c1c(C)[nH]c(C(=O)COC(=O)CCOc2ccc(C)cc2)c1C,-8.71%
19,CS(=O)(=O)c1ccc(Cl)c(NC(=O)C2CCCCN2S(=O)(=O)c2ccccc2)c1 (centres unmarked),-49.3%
20,C/C=C/Cn1c(SCCCc2ccccc2)nc2c1c(=O)[nH]c(=O)n2C,-35.7%
21,Cc1c(CNCC(C)c2ccccc2)c(C(=O)O)c(C)n1Cc1ccccc1 (centres unmarked),-10%
22,Cc1ccc(NC(=O)CSc2nc3c(c(=O)[nH]2)CN(Cc2ccc(F)cc2)CC3)cc1C,-8.41%

row,SMILES,"hERG current change (%, negative = inhibition) at 10uM"
1,Cc1nc2c(ccc3nc(NC(=O)C(c4ccccc4)c4ccccc4)sc32)s1,20.6%
2,O=C(CNS(=O)(=O)c1ccc2ccccc2c1)OCc1csc(-c2ccccc2)n1,0.647%
3,O=C(Nc1cccc2cccnc12)c1cc(F)c(F)cc1Cl,17.6%
4,CCN(CC)CCn1c(NCc2ccco2)nc2ccccc21.Cl,-73%
5,Cc1cc2cccc(C)c2nc1SCC(=O)N(C)c1nc(-c2ccccc2)cs1,7.45%
6,CCN(CC)S(=O)(=O)c1ccc(S(=O)(=O)N(CC(=O)Nc2ccccc2)CC2CCCO2)cc1 (centres unmarked),-18.6%
7,COC(=O)C1=C(C)N(CC2CC2)C(=NCCN2CCOCC2)N[C@H]1c1ccccc1,-19.3%
8,Cc1cccc(Nc2nc(-c3c(C)nc4ccccn34)cs2)c1,0.479%
9,Nc1n[nH]c(N)c1N=Nc1ccc(Cl)cc1,1.38%
10,CC(CS(=O)(=O)c1ccc2c(c1)NC(=O)CS2)C(=O)NCc1ccccc1Cl (centres unmarked),-0.823%
11,OCC[C@@H]1C[C@H](O)[C@@H](O)[C@]2(Cc3ccccc3CCO2)O1,8.2%
12,CCc1cc(=O)oc2c(C)c(OCC(=O)NCCCn3ccnc3)ccc12,-45.9%
13,CC(C)(C)C(=O)Nc1cc(NC(=O)C(C)(C)C)cc(C(=O)NNC(=O)c2ccncc2)c1,16.5%
14,CN(C)S(=O)(=O)c1ccc(Cl)c(C(=O)Nc2ccccc2[N+](=O)[O-])c1,-21.9%
15,CCCn1c(SCC(=O)/C(C#N)=C(\C)N)n[nH]c1=O,7.25%
16,CC1CCCC(C)N1/N=C/c1ccc(C(=O)O)cc1 (centres unmarked),5.77%
17,Clc1nc(Cl)nc(NCCC2=CCCCC2)n1,0.247%
18,Cc1ccccc1C(=O)Nc1scc(-c2ccc(Br)cc2)c1C(=O)O,8.3%
19,COc1cccc(Oc2ccc(C(F)(F)F)cc2NC(=O)CCc2nc3ccccc3c(=O)[nH]2)c1,-16.4%
20,CC(/C=N/NC(=O)c1cccs1)=C\c1ccco1,-1.92%
21,CC(C)OP(=O)(c1ccc(N(C)C)cc1)C(O)c1ccc(C(C)C)cc1 (centres unmarked),7.66%
22,CCOC(=O)c1ccc(Nc2nc(=O)c3cccnc3s2)cc1,-7.17%

row,SMILES,"hERG current change (%, negative = inhibition) at 10uM"
1,CCN(CC1CCCO1)C(=O)CCc1nnc(Cc2ccc3c(c2)OCO3)o1 (centres unmarked),34.4%
2,C=CCn1cccc(C(=O)Nc2ccc(OC)cc2)c1=O,-2.33%
3,COc1ccc(NC(=S)Nc2ccc3snnc3c2)cc1,41%
4,CCOC(=O)c1ccccc1NC(=O)CSc1cccc[n+]1[O-],1.48%
5,NC(=O)C1CCN(Cc2nc(-c3ccccc3)no2)CC1,-14.1%
6,COCCn1c(=O)[nH]c(=O)c2c1nc(-c1ccc(-c3ccc(Cl)cc3[N+](=O)[O-])o1)n2Cc1ccccc1,-10.3%
7,COc1ccc(C(=O)/C=C/Nc2c(C)n(C)n(-c3ccccc3)c2=O)c(OC)c1,0.857%
8,CCOC(=O)c1sc2nc(C)nc(SC(C)C(=O)N(C)c3ccccc3)c2c1C (centres unmarked),-15%
9,COc1ccc(NC(=O)Cc2c(F)cccc2Cl)c(OC)c1,2.66%
10,CCCN(CC(=O)Nc1cccc(S(N)(=O)=O)c1)CC(=O)Nc1ccc(F)c(F)c1F,-3.56%
11,O=C(c1ccccc1)c1cccn1CC(=O)N1CCN(c2ccc(F)cc2)CC1,-30.1%
12,CN(C)CCN(C(=O)c1ccc2ccccc2c1)c1nc2ccc(Br)cc2s1.Cl,13.2%
13,COCCNC(=O)c1cccc2c1-c1ccccc1C2=O,-3.85%
14,O=C(Nc1ccc2c(c1)OCO2)c1ccc2c(c1)OCO2,22.2%
15,Cn1c(SCC(=O)Nc2nccs2)nnc1C12CC3CC(CC(C3)C1)C2,-6.22%
16,COC(=O)[C@@]1(C)CC[C@]2(C)CC[C@@]3(C)C(=CC(=O)C4[C@@]5(C)CC[C@H](O)C(C)(C)[C@@H]5CC[C@]43C)[C@H]2C1 (some centres unmarked),16.7%
17,COC(=O)[C@@H](Cc1c[nH]c2ccccc12)NC(=O)CCC(=O)c1ccc(Br)cc1,-6%
18,CCCc1c(C)[nH]c2ccccc2c1=O,2.07%
19,Cc1cc(C)cc(NC(=O)CSc2nnnn2-c2cccnc2)c1,6.91%
20,COc1cccc2c(=O)c(C(=O)O)c[nH]c12,-0.514%

# — PMC4336329 (PLoS ONE, 2015)
